The source of these data is ChEMBL document CHEMBL4813913, “In vitro identification of imidazo[1,2-a]pyrazine-based antileishmanial agents and evaluation of L. major casein kinase 1 inhibition” (Eur J Med Chem, 2021).

pIC50: −log10 of the molar value. Where only a bound is given, the exact number is not on record here.

Series [1] is described as follows: Cytotoxicity against mouse RAW264.7 cells assessed as reduction in cell growth measured after 48 hrs by SYBR Green 1 dye based fluorescence assay. Summed up: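 RAW 264.7 cells seeded at 100,000 cells/well in DMEM with 10% FBS, 24 h at 37 °C, 5% CO₂. Two-fold serial dilutions, final 49 nM–100 μM, for 48 h. Growth read by SYBR Green I. CC50 by nonlinear regression. Miltefosine reference; untreated cells as growth control.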

Series [2] can be described thus: Cytotoxicity against human MRC5 cells assessed as reduction in cell viability measured after 96 hrs by resazurin assay. The class given is cell-based. Summed up:
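Human MRC-5 fibroblasts grown in RPMI 1640 with 10% FBS. Exposed to 100, 10 and 1 μM in triplicate for 96 h. Then 10 μL of 700 μM resazurin added for 4 h and fluorescence read. Value is the mean of triplicates.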
(Resazurin is reduced to fluorescent resorufin, in cell work by metabolically active cells.)

Series [3] deals with Receptor-interacting serine/threonine-protein kinase 3 (Homo sapiens, UniProt Q9Y572). The experiment in a line: Inhibition of recombinant human RIPK3 expressed in baculovirus infected Sf9 cells using MBP as substrate in presence of ATP measured after 30 mins by ADP-Glo assay. It counts as ADME. The following applies: sf9, 0.5 h.
Series [4] is described as follows: Inhibition of recombinant Leishmania major CK1.2 expressed in bacterial expression system using RRKHAAIGSpAYSITA as substrate in presence of ATP measured after 30 mins by ADP-Glo assay. Background: ADP-Glo turns the ADP formed in a reaction into a luminescent signal.
In series [5] the target is Casein kinase I isoform epsilon (Homo sapiens, UniProt P49674). The experiment in a line: Inhibition of recombinant human CK1 epsilon expressed in baculovirus infected Sf9 cells using RRKHAAIGSpAYSITA as substrate. It counts as ADME.
The subject of a further series is Leishmania major. The experiment in a line: Antileishmanial activity against amastigote stage of Leishmania major (MHOM/IL/81/BNI) infected in BALB/c mouse peritoneal macrophages assessed as reduction in parasitic proliferation measured after 4 days by MayGrunwald-Giemsa stain based microscopic method. It counts as functional, organism-based. The following applies: Peritoneal macrophage, 96 h. Summed up:
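BALB/c peritoneal macrophages on glass slides, 1.5×10⁵ cells/mL in RPMI 1640 with 15% FBS, 24 h attachment. Infected with stationary-phase promastigotes (1.5×10⁶/mL) for 24 h at 37 °C, 5% CO₂. Washed, then exposed 4 days to 100, 10, 1, 0.1 μM (DMSO ≤1% final). Methanol-fixed, May-Grunwald-Giemsa stained, amastigotes counted in 100 macrophages per duplicate well. IC50 from amastigotes/macrophage. Run twice.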

Series [6] deals with T1, Glycogen synthase kinase-3 (Sus scrofa, UniProt B2LUN4+I6LNT8). The experiment in a line: Inhibition of pig brain GSK alpha/beta using YRRAAVPPSPSLSRHSSPHQSpEDEEE as substrate in presence of ATP measured after 30 mins by ADP-Glo assay. It counts as ADME, tissue-based, Sus scrofa domesticus.
A short description of series [7]: Toxicity against Galleria mellonella larva assessed as reduction of viability at 50 mg/kg measured for 7 days. The class given is organism-based. The following applies: in vivo, 168 h, time 7 day. In short, it runs like this: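 G. mellonella larvae (6th stage, 260–320 mg), groups of ten. Injected in the 4th left pro-leg with 10 μL at 10–50 mg/kg; controls got PBS/DMSO (DMSO <40%). Kept in the dark at 37 °C. Survival and cuticular darkening scored daily for 7 days; death taken as no movement on stimulus. Kaplan-Meier with log-rank test; two independent experiments.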

Series [8] is described as follows: Selectivity index, ratio of CC50 for mouse RAW264.7 cells to IC50 for amastigote stage of Leishmania major (MHOM/IL/81/BNI) infected in BALB/c mouse peritoneal macrophages. It counts as toxicity. The following applies: read-out: Ratio CC50/IC50. Summed up:
(§1)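 Selectivity index is CC50 on RAW 264.7 or MRC-5 cells divided by IC50 on intracellular amastigotes.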

A short description of series [9]: Selectivity index, ratio of CC50 for mouse RAW264.7 cells to IC50 for amastigote stage of Leishmania braziliensis (MHOM/BR/75/M2903b) infected in mouse RAW264.7 cells. The class given is toxicity, cell-based. The following applies: read-out: Ratio CC50/IC50. Summed up:
as §1

The nature of series [10]: Selectivity index, ratio of CC50 for human MRC5 cells to IC50 for amastigote stage of Leishmania major (MHOM/IL/81/BNI) infected in BALB/c mouse peritoneal macrophages. The class given is toxicity. The following applies: read-out: Ratio CC50/IC50. Summed up:
as §1

Series [11] addresses Dual specificity protein kinase CLK1 (Mus musculus, UniProt P22518). Kind of series: Inhibition of recombinant mouse CLK1 expressed in bacteria using GRSRSRSRSRSR as substrate in presence of [gamma-33P]ATP by radiometric assay. It counts as ADME.
For series [12], the target named is T1, Glycogen synthase kinase-3. The experiment in a line: Inhibition of pig brain GSK alpha/beta using YRRAAVPPSPSLSRHSSPHQSpEDEEE as substrate in presence of [gamma-33P]ATP by radiometric assay. The class given is ADME, Sus scrofa domesticus.
For the next series, the target named is CDK2/Cyclin A2 (Homo sapiens, UniProt P24941). The experiment in a line: Inhibition of human CDK2/ cyclinA using histone H1 as substrate in presence of [gamma-33P]ATP by radiometric assay. The class given is ADME, protein-complex assay.
The target of series [13] is Serine/threonine-protein kinase pim-1 (Homo sapiens, UniProt P11309). Kind of series: Inhibition of recombinant human PIM1 expressed in bacteria using histone H1 as substrate in presence of [gamma-33P]ATP by radiometric assay. The class given is ADME.
Series [14] addresses Cyclin-dependent kinase 5/CDK5 activator 1 (Homo sapiens, UniProt Q00535). The experiment in a line: Inhibition of human recombinant CDK5/ p25 expressed in bacterial expression system using histone H1 as substrate in presence of [gamma-33P]ATP by radiometric assay. The class given is ADME.

The term CC50 denotes the concentration giving 50% cytotoxicity. As usually defined, the pIC50 is the negative decadic logarithm of the IC50, by convention in mol/L. One may read the IC50 as the concentration needed to halve the response being measured. Take `CN(C)c1nccn2c(-c3ccncc3)c(-c3ccc(F)cc3)nc12`: the CC50 at 48 h in series [1] is 42 µM. Also, in [2], the CC50 at 96 h was > 100 µM. For the same compound, the “inhibition (INH)” value in series [3] is reported as “Not Active”. In addition, the results for the pIC50 (in series [4]; in series [5]; with Leishmania major) were 6.14, 6.04 and 6.10, respectively. In addition, in series [6], the IC50 is > 10 µM. Besides, in [7], the Activity entry is “Non-Toxic”.

On to `CN(C)c1nccn2c(-c3cncnc3)c(-c3ccc(F)cc3)nc12`, for which, in [1], the CC50 at 48 h came to 39.1 µM. Moreover, in series [2], the CC50 at 96 h was > 100 µM. Besides, the selectivity ratio was 1.2 in [8], 1.7 in series [9] and > 3 in series [10]. Also, in [3], the “inhibition (INH)” value is on record as “Not Active”. Besides, the pIC50 in series [4] is 4.54; in [5], < 4.00; with Leishmania major, 4.47. The IC50 in [6] is > 10 µM. Also, the Activity result in series [7] is “Non-Toxic”.

For the compound `CSc1nccc(-c2c(-c3ccc(F)cc3)nc3c(Cl)nccn23)n1`, the CC50 at 48 h in series [1] is 49.8 µM. For the same compound, the pIC50 in series [11] is < 5.00; at CDK2/Cyclin A2 it was < 5.00; in series [14], < 5.00; in [5], < 5.00; with Leishmania major it was < 4.00. Besides, the CC50 at 96 h in series [2] was determined as 79.9 µM. Further, the IC50 in series [12] was > 10 µM. The selectivity ratio in series [9] stood at 0.7. Further, the “inhibition (INH)” value in series [13] is recorded as “Not Active”. The Activity entry in series [7] is on record as “Non-Toxic”.

Regarding `CN(C)c1nccn2c(-c3ccnc(N)n3)c(-c3ccccc3)nc12`, the CC50 at 48 h in series [1] is 44.1 µM. The pIC50 in series [11] is 6.23; on CDK2/Cyclin A2 it was < 5.00; in series [14], < 5.00; in the series on Leishmania major it was 4.55. Further, the CC50 at 96 h in series [2] worked out at 58.4 µM. In addition, the IC50 in series [12] is > 10 µM. Also, the “inhibition (INH)” value in series [13] is “Not Active”. In addition, the Activity result in [7] is given as “Non-Toxic”.

For the compound `CN(C)c1nccn2c(-c3ccc4[nH]ncc4c3)c(-c3ccc(F)cc3)nc12`, the CC50 at 48 h in series [1] came out at 7.41 µM. The CC50 at 96 h in [2] was 24.8 µM. Also, in series [3], the “inhibition (INH)” value was “Not Active”. For the same compound, the pIC50 in [4] was 5.73; in series [5], 5.68; in the series on Leishmania major, < 4.90. Besides, the IC50 in [6] was > 10 µM. The Activity entry in series [7] is listed as “Non-Toxic”.

As to `CN(C)c1nccn2c(-c3ccnc(N)n3)c(-c3ccc(F)cc3)nc12`, the CC50 at 48 h in [1] was 42.2 µM. Further, the pIC50 in [11] is 6.60; at CDK2/Cyclin A2, < 5.00; in series [14], < 5.00; in the series with Leishmania major it was 5.08. For the same compound, the CC50 at 96 h in series [2] turned out to be 100 µM. The IC50 in [12] was > 10 µM. Also, in series [13], the “inhibition (INH)” value is listed as “Not Active”. Moreover, the Activity entry in series [7] is listed as “Non-Toxic”.

For `CSc1nccc(-c2c(-c3ccccc3)nc3c(N(C)C)nccn23)n1`, in series [1], the CC50 at 48 h was found to be 33.4 µM. For the same compound, the pIC50 is 6.05 in [11]; < 5.00 on CDK2/Cyclin A2; < 5.00 in series [14]; < 5.00 in series [5]; < 4.00 in the series with Leishmania major. Further, in series [2], the CC50 at 96 h turned out to be 81 µM. Besides, the IC50 in [12] is > 10 µM. The “inhibition (INH)” value in series [13] is reported as “Not Active”. Further, the Activity entry in series [7] is listed as “Non-Toxic”.

With `CSc1nccc(-c2c(-c3ccccc3)nc3c(Cl)nccn23)n1`, the CC50 at 48 h in series [1] turned out to be 50.6 µM. Further, the pIC50 is < 5.00 in series [11], < 5.00 on CDK2/Cyclin A2, < 5.00 in series [14] and < 4.00 in the series on Leishmania major. Also, the CC50 at 96 h in series [2] worked out at 33.5 µM. Besides, in series [12], the IC50 is > 10 µM. The “inhibition (INH)” value in [13] was “Not Active”. Besides, the Activity result in series [7] was “Non-Toxic”.

`CSc1nccc(-c2c(-c3ccc(F)cc3)nc3c(N(C)C)nccn23)n1`: the CC50 at 48 h in series [1] is 36.5 µM. Further, the negative-log IC50 (pIC50) in series [11] was < 5.00; on CDK2/Cyclin A2, < 5.00; in series [14], < 5.00; in [5], < 5.00; in the series with Leishmania major, < 4.00. For the same compound, the CC50 at 96 h in series [2] was found to be 67 µM. In series [12], the IC50 is > 10 µM. Also, the “inhibition (INH)” value in [13] is listed as “Not Active”. In series [7], the Activity entry is on record as “Non-Toxic”.

Take `CSc1nccc(-c2c(-c3ccc(F)cc3)nc3c(N)nccn23)n1`: in [1], the CC50 at 48 h turned out to be 11.5 µM. Also, the pIC50 was 6.80 in series [11]; 5.00 on CDK2/Cyclin A2; 6.00 in [14]; 6.74 in series [5]; 4.26 with Leishmania major. The CC50 at 96 h in series [2] is 18.4 µM. In series [12], the IC50 was 4.5 µM. Also, the “inhibition (INH)” value in series [13] is “Not Active”. The Activity result in [7] is “Non-Toxic”.
